Data reported in the supplement of paper PMC12217912.
The list shows a part of the results. Sequences were assembled here from the parent chain. Values near 0.05 are background.

B1: TEV protease; numbered along this chain (parent)
chain: MGESLFKGPRDYNPISSSICHLTNESDGHTTSLYGIGFGPFIITNKHLFRRNNGTLVVQSLHGVFKVKDTTTLQQHLVDGRDMIIIRMPKDFPPFPQKLKFREPQREERICLVTTNFQTKSMSSMVSDTSCTFPSGDGIFWKHWIQTKDGQCGSPLVSTRDGFIVGIHSASNFTNTNNYFTSVPKNFMELLTNQEAQQWVSGWRLNADSVLWGGHKVFMVKPEEPFQPVKEATQL

Variants of: B1
Experiment: raw area under fraction-flipped curve 0-4 h after induction (AUC4h, not background-subtracted), DNA-recorder readout of cleavage of the substrate (dimensionless); higher = more cleavage of the substrate by the protease variant
Settings: temperature: 34 °C; time window: 0-4 h after rhamnose induction
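Also: Bxb1 expression induced with 0.2% (w/v) L-rhamnose at OD600 near 0.5, cultures sampled hourly, flipped fraction per protease–substrate barcode pair counted by paired-end Illumina sequencing.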

Variant	area with substrate CNLYFQS	area with substrate DNLYFQS	area with substrate HNLYFQS	area with substrate LNLYFQS	area with substrate NNLYFQS	area with substrate PNLYFQS	area with substrate QNLYFQS	area with substrate RNLYFQS	area with substrate SNLYFQS	area with substrate TNLYFQS	area with substrate VNLYFQS	area with substrate WNLYFQS	area with substrate YNLYFQS	area with substrate FNLYFQS	area with substrate INLYFQS	area with substrate KNLYFQS	area with substrate MNLYFQS	area with substrate GNLYFQS
S182N	0.0619	0.067	0.0523	0.0511	0.0615	0.0617	0.0611	0.0617	0.0512	0.051	0.0503	0.076	0.0442					
S182K	0.0569	0.0504		0.0633	0.0594	0.0773		0.0728	0.0491	0.0649	0.054	0.0609	0.0583	0.0554	0.0581	0.0724		
F173M	0.0651	0.0871	0.0658			0.0804			0.0534	0.0603		0.0469		0.0609		0.0745	0.0706	
V183L	0.0632	0.0673	0.0684		0.0567	0.1		0.0589	0.0557		0.0584	0.0545	0.0528					
V183R	0.047	0.0587	0.0439	0.0562	0.045							0.0399			0.0364	0.0473		
V183N	0.0726	0.069					0.0765		0.0624	0.0648			0.0504		0.0525			0.0584
M188W	0.0429	0.063	0.0718	0.0567		0.0534			0.0588	0.0554	0.0635	0.0581	0.0683	0.0606	0.0617	0.0667	0.0668	0.0724
M188E	0.0788	0.071	0.0731		0.0743	0.07				0.051		0.0591			0.0674	0.0715		0.0747
P184M	0.0719		0.0586	0.0515	0.0617					0.0595	0.062	0.0846	0.0369	0.0739	0.061		0.0623	0.0518
T174P	0.0511	0.0599	0.0584	0.0542						0.0602		0.0533			0.0582	0.0477	0.0675	
N186P	0.0619	0.0794	0.0328	0.0262		0.0551				0.0742				0.0478	0.0528		0.0681	
G166I	0.048	0.0582	0.0408	0.053	0.0121	0.0514			0.0398	0.0532		0.0543	0.0511			0.039	0.0595	
G166L	0.065	0.0478	0.0468			0.0368	0.0509			0.0539		0.0531	0.0543	0.0392				0.0697
F180E	0.0539	0.0349		0.0648		0.0669		0.0777	0.0555	0.0584			0.0493	0.0564	0.0483			0.0257
F180G	0.066	0.0668	0.052			0.0515				0.0549	0.0541	0.0439	0.0565		0.0591	0.0623	0.0533	0.0565
F180W	0.0529	0.117	0.0577	0.0457	0.0606	0.0611				0.0548		0.0701				0.0631		0.0576

Variant	area with substrate CNLYFQS	area with substrate DNLYFQS	area with substrate HNLYFQS	area with substrate LNLYFQS	area with substrate NNLYFQS	area with substrate PNLYFQS	area with substrate QNLYFQS	area with substrate RNLYFQS	area with substrate SNLYFQS	area with substrate TNLYFQS	area with substrate VNLYFQS	area with substrate WNLYFQS	area with substrate YNLYFQS	area with substrate FNLYFQS	area with substrate INLYFQS	area with substrate KNLYFQS	area with substrate MNLYFQS	area with substrate GNLYFQS
L190R	0.0784	0.0729	0.065	0.0635	0.0665				0.0613		0.0531	0.0416	0.0731		0.041		0.0624	
L190H	0.0662	0.0843	0.0595	0.0633		0.0646	0.0669		0.0651	0.0611	0.07			0.0476	0.0594	0.0771	0.0542	
I164N	0.0459	0.0386								0.058	0.0568	0.0658	0.0523	0.0481	0.0455	0.0648		0.0473
Y179K	0.075	0.0582	0.0686				0.0475						0.0589				0.0542	
I167S	0.059	0.0322	0.0615	0.0718		0.0726		0.054	0.0573			0.0469	0.0721			0.06	0.0575	0.0609
I167Y	0.0578	0.066	0.0497	0.0511	0.0506	0.0571		0.0646	0.0519	0.059	0.0511	0.0751			0.0442			
V165A	0.0564	0.0461	0.0524	0.06						0.0545		0.0458				0.0625	0.0472	0.0441
V165G	0.0527	0.0719	0.0541	0.0512		0.0529		0.0895	0.0585	0.0576	0.0586	0.0528	0.0483	0.0523			0.0601	0.049
T181P	0.0477	0.0581	0.0573	0.055					0.0322	0.0579	0.0551	0.0591	0.0534		0.0596	0.0575	0.0574	
S171V	0.0259	0.0559	0.0496	0.0604	0.0716	0.062			0.0624	0.0652	0.0476	0.0578	0.0634			0.0526		0.0537
N175E	0.0667	0.0658	0.0518	0.0504				0.0584		0.037		0.0594	0.0612			0.0787		0.0631
N175R	0.067	0.0697	0.0426			0.0724			0.0619	0.0565	0.0668	0.0623	0.0557		0.0267	0.0562	0.0679	
N172E	0.0549	0.0488	0.0602	0.0554	0.0892				0.0706	0.0551		0.0559			0.0596			
E189M	0.066	0.0694	0.0669	0.0623		0.0757		0.057	0.0545	0.0574		0.0568	0.0636	0.0427	0.0648	0.0651		0.0667
E189A	0.0625	0.0867	0.0809								0.0615	0.0592				0.0481	0.0563	
